Measurements from PubChem BioAssay AID1768 (National Center for Advancing Translational Sciences (NCATS), 2009).
Out of some 270,000 compounds screened, about 620 (0.23%) were called active. This list was built around the results that the source calls inconclusive (neither active nor inactive); the mix of calls is not that of the screen. Calls come from the whole dose curve; as a rule, active = well fitted inhibition curve with a large enough effect in the polarisation, with a control signal flat (not every such curve was filed as active); inconclusive = small, poorly fitted or top-dose-only effect, or effect the other way, or a change in a side signal; inactive = no such curve, though single readings can be large or run the other way; the % refers to the polarisation. Potencies of inconclusive entries are doubtful fits and often do not repeat. A note “side channel” means that the fit belongs to a control or component signal, not to the main read-out.

The compounds below were run against Menin (Homo sapiens) (UniProt O00255) (assay: qHTS Assay for Inhibitors Targeting the Menin-MLL Interaction in MLL Related Leukemias: Competition With Texas Red Labeled MLL-derived Mutant Peptide). Conditions: fluorescence polarization; FP activity change, negative = inhibition: at 61.6 µM (top of the series).
Chain of UniProt O00255 (O00255 whole entry, looked up): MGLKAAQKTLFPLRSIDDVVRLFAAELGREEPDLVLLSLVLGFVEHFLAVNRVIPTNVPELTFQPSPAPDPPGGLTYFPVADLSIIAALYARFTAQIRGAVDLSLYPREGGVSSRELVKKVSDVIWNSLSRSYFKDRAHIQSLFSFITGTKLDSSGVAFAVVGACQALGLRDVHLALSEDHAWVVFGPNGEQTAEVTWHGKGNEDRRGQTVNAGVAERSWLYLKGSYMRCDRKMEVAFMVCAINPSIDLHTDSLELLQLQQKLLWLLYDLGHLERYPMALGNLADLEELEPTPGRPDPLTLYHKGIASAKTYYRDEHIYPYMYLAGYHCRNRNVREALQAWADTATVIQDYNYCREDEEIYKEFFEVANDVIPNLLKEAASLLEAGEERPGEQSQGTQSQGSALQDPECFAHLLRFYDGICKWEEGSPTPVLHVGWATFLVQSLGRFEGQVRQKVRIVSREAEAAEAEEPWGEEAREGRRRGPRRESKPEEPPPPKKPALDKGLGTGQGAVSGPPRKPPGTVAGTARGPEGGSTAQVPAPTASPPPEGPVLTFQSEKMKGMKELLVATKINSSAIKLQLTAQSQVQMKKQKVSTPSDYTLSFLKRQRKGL
Potency is the fitted concentration of half-maximal effect; tags give direction and shape of the fitted curve or compound fluorescence and quenching.
Throughout, for FP activity change, negative = inhibition: % of control where 0% means no effect.

**Q.** Which Potency does the source give for `CCC1(C)Cc2c(sc3[nH]c(=S)n(Cc4ccccc4)c(=O)c23)CO1` (configuration not stated) here?
**A.** inconclusive: 20 µM [quencher, side channel, partial curve]

**Q.** Which Potency does the source give for `COc1ccc(-c2nc3cnc(Nc4cccc(OC)c4)nc3n(C)c2=O)cc1` here?
**A.** inconclusive: 3.55 µM [quencher, side channel, full curve, poor fit]

**Q.** `Cc1sc(C(C2C(=O)CC(C)(C)CC2=O)C2C(=O)CC(C)(C)CC2=O)cc1[N+](=O)[O-]` was tested. Which Potency did it give?
**A.** inconclusive: 17.8 µM [quencher, side channel, partial curve]

**Q.** For `COCCCNC(=O)c1c(N)n(-c2cccc(S(N)(=O)=O)c2)c2nc3ccccc3nc12`, which Potency is on record?
**A.** inactive

**Q.** With `CCOc1cc(/C=N/NC(=O)CN2CCCCC2)ccc1OCc1ccc(Cl)cc1` as the compound, how does the Potency read?
**A.** inconclusive: 8.91 µM [fluorescent, side channel, partial curve]

**Q.** `COc1cccc(OC)c1OCC(O)CN1CCN(c2ccccc2F)CC1` (configuration not stated) was tested. Which Potency did it give?
**A.** inconclusive: 39.8 µM [inhibitor, single point]

**Q.** How did the Potency turn out when `Cc1ccccc1OCC(=O)N/N=C/c1cccc(Oc2ccc([N+](=O)[O-])cc2[N+](=O)[O-])c1` was run?
**A.** inconclusive: 35.5 µM [quencher, side channel, partial curve]

**Q.** Which Potency does the source give for `CN(C)c1ccc(C(c2ccc(N(C)C)cc2)c2ccc([N+](=O)[O-])cc2)cc1` here?
**A.** inactive

**Q.** Which Potency does the source give for `CN(C)c1ccc2c(-c3ccccc3)c3ccc(=[N+](C)C)cc-3oc2c1` here?
**A.** inconclusive: 0.316 µM [fluorescent, side channel, full curve]

**Q.** Which Potency does the source give for `O=C(NC1CCCCC1)C(c1ccccn1)N(C(=O)Cc1cccs1)c1ccc(Cl)cc1` (configuration not stated) here?
**A.** inconclusive: 3.55 µM [inhibitor, partial curve]

**Q.** How did the Potency turn out when `Cc1noc(C)c1COc1cccc(C(=O)N2CCN(C/C=C/c3ccccc3)CC2)c1` was run?
**A.** inconclusive: 3.98 µM [fluorescent, side channel, full curve, poor fit]

**Q.** For `O=C1CCCc2ccccc2N1Cc1cccc(F)c1`, which Potency is on record?
**A.** inconclusive: 39.8 µM [inhibitor, single point]

**Q.** How did the Potency turn out when `CC(Cc1ccccc1)NC(=O)c1cc2ccccc2o1` (configuration not stated) was run?
**A.** inconclusive: 11.2 µM [quencher, side channel, partial curve]

**Q.** `COc1ccccc1N(CC(=O)NC1CCCC1)C(=O)c1csnn1` was tested. Which Potency did it give?
**A.** inactive

**Q.** With `COc1cccc(CNc2ccc(F)c(Cl)c2)c1O` as the compound, how does the Potency read?
**A.** inactive

**Q.** With `CCOc1ccccc1N1CCN(C(=O)c2cc3c(s2)CCC3)CC1` as the compound, how does the Potency read?
**A.** inconclusive: 8.91 µM [fluorescent, side channel, full curve, poor fit]

**Q.** `O=C(O)[C@H]1[C@H]2C[C@H]3c4[nH]c5ccccc5c4CCN3C[C@@H]2CC[C@@H]1O` was tested. Which Potency did it give?
**A.** inconclusive: 39.8 µM [fluorescent, side channel, single point]

**Q.** With `O=C(NN1C(=O)/C(=C/c2cccs2)SC1=S)c1ccccc1` as the compound, how does the Potency read?
**A.** inconclusive: 39.8 µM [quencher, side channel, single point]

**Q.** How did the Potency turn out when `CC1(C)CC(=O)C2=C(C1)NC1=C(C(=O)c3ccccc31)C2c1ccccc1` (configuration not stated) was run?
**A.** inconclusive: 31.6 µM [quencher, side channel, single point]

**Q.** Which Potency does the source give for `Cc1ccc(SCc2cc(-c3ccc(Cl)cc3)on2)cc1` here?
**A.** inconclusive: 39.8 µM [inhibitor, single point]

**Q.** Which Potency does the source give for `CCCC(=O)Nc1c(-c2ccc(OC)cc2)c(=O)c2ccccc2n1C` here?
**A.** inactive

**Q.** How did the Potency turn out when `O=C(NNc1nc(-c2ccc(Cl)cc2)cs1)c1ccco1` was run?
**A.** inconclusive: 28.2 µM [quencher, side channel, single point]

**Q.** Which Potency does the source give for `Cc1cc[n+](-c2nc3ccccc3nc2C(=C=[N-])C#N)cc1` here?
**A.** inconclusive: 8.91 µM [inhibitor, single point]

**Q.** For `O=C1OCCN1C(=O)[C@H]1[C@H](c2ccc(F)cc2)C(c2ccccc2)=NN1c1ccccc1`, which Potency is on record?
**A.** inconclusive: 3.16 µM [quencher, side channel, full curve, poor fit]

**Q.** For `Cc1cccc(N2CCN(CCCNC(=O)C3CCCN(c4ncnc5c4nc4n5CCCCC4)C3)CC2C)c1` (configuration not stated), which Potency is on record?
**A.** inconclusive: 15.8 µM [inhibitor, partial curve]

**Q.** For `COC(=O)NC(c1cccc(F)c1)[C@]1(C(C)=O)CCCC1=O` (some centres not stated), which FP activity change, negative = inhibition is on record?
**A.** inactive: 3.08% [at 11.7 µM]

**Q.** For `COC(=O)C(C)N(C(=O)c1cccc(Cl)c1)c1c(C)cccc1C` (configuration not stated), which Potency is on record?
**A.** inconclusive: 3.98 µM [fluorescent, side channel, full curve]

**Q.** For `O=C(NCc1ccc2c(c1)OCO2)c1ccc2c(c1)OCCO2`, which Potency is on record?
**A.** inactive

**Q.** Which Potency does the source give for `CS(=O)(=O)N(CC(=O)Nc1ccc(Cl)c(Cl)c1)C1CCCCC1` here?
**A.** inconclusive: 20 µM [quencher, side channel, partial curve]

**Q.** Which Potency does the source give for `O=C(CCCn1c(=S)[nH]c2ccsc2c1=O)Nc1ccc2c(c1)OCO2` here?
**A.** inconclusive: 28.2 µM [quencher, side channel, single point]

**Q.** `CN(CC(=O)Nc1sccc1C#N)Cc1ccccc1` was tested. Which Potency did it give?
**A.** inconclusive: 20 µM [quencher, side channel, partial curve]

**Q.** For `O=[N+]([O-])c1cccnc1Oc1ccc(OCc2ccccc2)cc1`, which Potency is on record?
**A.** inconclusive: 28.2 µM [quencher, side channel, single point]

**Q.** With `CCN(CC)c1ccc(NC(=O)/C=C/c2cc(Br)ccc2OC)cc1` as the compound, how does the Potency read?
**A.** inconclusive: 7.94 µM [quencher, side channel, partial curve]

**Q.** `CCN(CC)C(=O)c1sc2[nH]c(=S)n(-c3ccccc3)c(=O)c2c1C` was tested. Which Potency did it give?
**A.** inconclusive: 7.94 µM [inhibitor, full curve, poor fit]

**Q.** With `COc1ccc(C(=O)CSc2nc3ccc([N+](=O)[O-])cc3[nH]2)cc1` as the compound, how does the Potency read?
**A.** inconclusive: 35.5 µM [quencher, side channel, single point]

**Q.** How did the Potency turn out when `COCCCC1CCN(Cc2nc(Cc3ccccc3Cl)no2)CC1` was run?
**A.** inconclusive: 10 µM [fluorescent, side channel, partial curve]

**Q.** How did the Potency turn out when `C=C(C)COc1ccc(-c2[nH]ncc2-c2ccccc2OC)c(O)c1` was run?
**A.** inconclusive: 25.1 µM [quencher, side channel, single point]
